Paper PMC6212398, “Competing protein-protein interactions regulate binding of Hsp27 to its client protein tau” (Nature Communications, 2018)
Results are given in words; binding and its absence hold for the method and conditions named. Some binding calls cover weakened binding; strength is not graded here. Each block holds one binder with its values, some of them ahead of it.

Chains of the proteins cited; added tags and fusions are not shown. Lines headed by an entry give the natural chain unless they say otherwise; changes in a name come on top. Residues count along the entry.
UniProt P04792: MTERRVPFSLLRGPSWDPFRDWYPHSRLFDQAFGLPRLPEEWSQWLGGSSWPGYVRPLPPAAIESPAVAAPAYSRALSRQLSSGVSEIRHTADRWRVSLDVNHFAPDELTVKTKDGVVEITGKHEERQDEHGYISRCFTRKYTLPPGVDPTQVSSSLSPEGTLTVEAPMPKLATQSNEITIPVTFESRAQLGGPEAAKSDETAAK
Hsp27 alpha-crystallin domain (ACD, residues Q80–S176): residues 80-176 of P04792

Columns and labels:
[1] = target: Hsp27 alpha-crystallin domain (ACD, residues Q80–S176) (human) (UniProt P04792); test: NMR titration; titration of the 6-mer PHF6* peptide into 15N Hsp27 ACD, 1H-15N spectra (Supplementary Figure 3D); both purified
[2] = target: Hsp27 alpha-crystallin domain (ACD, residues Q80–S176) (human) (UniProt P04792); test: NMR titration; 1H-15N HSQC of 15N Hsp27 ACD (150 µM) alone or with 250 µM K18, 0N4R or Hsp27 IPV peptide; 50 mM sodium phosphate, 100 mM NaCl, pH 7.4; 32 °C; both purified
[3] = target: full-length human Hsp27 (wild type) (human) (UniProt P04792); test: condition: peptide (1 mM) titrated into 100 µM Hsp27; ITC; peptide (1 mM) titrated into a cell with Hsp27 proteins (100 µM); SEC buffer (50 mM sodium phosphate, 100 mM NaCl); 25 °C; one-site binding model; both purified

- binding [1]: binds weakly
Binder: VQIVYK [6-mer PHF6* peptide (VQIVYK)]

- binding [2]: binds weakly
Binder: EITIPVTFE [Hsp27 IPV peptide (native 9-mer …)]

- binding [3]: no binding
Binder: EITIPVTHE [Hsp27 IPV H peptide (…)]
